# Laboratory results: article PMC4336329 (PLoS ONE, 2015)
# The whole screen tested about 310,000 compounds, of which about 14,000 (4.5%) showed an effect of 50% or more. Effects have a minus sign here. Some of the results follow.
# Target: human ether-à-go-go-related gene (hERG) potassium channel (human, UniProt Q12809)
# Assay: primary screen, population patch clamp on CHO cells stably expressing hERG
# 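Note: peak tail current of the secondary pulse compared with the same well before compound.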
# Sequence of human ether-à-go-go-related gene (hERG) potassium channel (Q12809 whole entry, looked up): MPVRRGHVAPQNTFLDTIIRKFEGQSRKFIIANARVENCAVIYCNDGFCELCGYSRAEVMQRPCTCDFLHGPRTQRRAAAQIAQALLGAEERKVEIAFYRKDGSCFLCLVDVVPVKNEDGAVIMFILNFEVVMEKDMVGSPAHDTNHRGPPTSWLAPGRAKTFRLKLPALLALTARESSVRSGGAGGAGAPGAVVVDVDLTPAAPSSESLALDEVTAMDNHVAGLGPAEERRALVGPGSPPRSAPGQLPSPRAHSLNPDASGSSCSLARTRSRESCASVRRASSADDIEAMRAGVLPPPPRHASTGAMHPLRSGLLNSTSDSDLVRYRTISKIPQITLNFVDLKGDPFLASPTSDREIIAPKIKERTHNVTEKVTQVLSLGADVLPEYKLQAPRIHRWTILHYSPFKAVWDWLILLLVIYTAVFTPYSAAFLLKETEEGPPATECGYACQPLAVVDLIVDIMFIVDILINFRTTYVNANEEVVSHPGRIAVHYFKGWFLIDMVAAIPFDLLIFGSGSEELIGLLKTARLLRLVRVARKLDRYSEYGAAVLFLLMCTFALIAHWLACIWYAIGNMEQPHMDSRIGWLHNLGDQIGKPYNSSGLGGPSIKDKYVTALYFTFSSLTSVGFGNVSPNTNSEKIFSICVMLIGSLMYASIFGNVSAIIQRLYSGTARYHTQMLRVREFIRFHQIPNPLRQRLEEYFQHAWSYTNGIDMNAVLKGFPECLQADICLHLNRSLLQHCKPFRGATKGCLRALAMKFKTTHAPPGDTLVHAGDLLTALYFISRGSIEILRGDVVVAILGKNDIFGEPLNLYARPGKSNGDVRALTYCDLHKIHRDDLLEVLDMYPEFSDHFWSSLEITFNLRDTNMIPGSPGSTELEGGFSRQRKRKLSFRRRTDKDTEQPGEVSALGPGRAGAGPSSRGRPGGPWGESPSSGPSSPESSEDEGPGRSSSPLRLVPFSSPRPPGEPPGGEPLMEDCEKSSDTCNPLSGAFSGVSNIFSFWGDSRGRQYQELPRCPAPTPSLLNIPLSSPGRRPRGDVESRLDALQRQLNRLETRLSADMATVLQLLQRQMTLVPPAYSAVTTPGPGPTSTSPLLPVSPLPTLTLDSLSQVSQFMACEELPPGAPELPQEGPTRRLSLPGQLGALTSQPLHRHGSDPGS
row,Structure (SMILES),"hERG current change (%, negative = inhibition) at 10uM [%]"
1,CC(C)C[C@@H](COc1ccccc1)N1CCN(CCc2ccccc2)CCC1=O,-77.5
2,On1c(-c2ccccc2)nc2ncccc21,0.151
3,COC(=O)c1ccc2c(c1)sc(=NC(=O)CCS(=O)(=O)c1ccccc1)n2C,-16.6
4,COCCNC(=O)/C=C/c1c(Cl)cccc1Cl,2.43
5,Cn1ccnc1C(=O)C1CCCN(Cc2cn[nH]c2-c2ccc(-c3ccccc3)cc2)C1 (centres unmarked),-67.9
6,CC(=O)Nc1ccc(S(=O)(=O)Nc2c(C)n(C)n(-c3ccccc3)c2=O)cc1,-1.32
7,C=C(C)CNc1cc(S(=O)(=O)N2CCOCC2)ccc1Oc1ccccc1,-21.3
8,O=C(COc1ccc([N+](=O)[O-])cc1)N1CCN(c2nnc(-c3ccccc3)c3ccccc23)CC1,-66.5
9,COc1ccc(N2CCN(C(CNC(=O)C3CCCCC3)c3ccco3)CC2)cc1 (centres unmarked),0.866
10,CCn1c(CN2CCOCC2)nnc1SCC(=O)Nc1ccccc1Cl,24.7
11,Cc1cc(C)cc(-n2c(C)cc(/C=C3\C(=N)N4N=C(CC(C)C)SC4=NC3=O)c2C)c1,5.86
12,C=CCN1C(=O)c2ccc(C(=O)N(CC)CC(=O)Nc3cc(Cl)ccc3C)cc2C1=O,-28.6
13,O=C(CN=C1NC(=O)C(c2ccccc2)(c2ccccc2)N1)NCc1ccc(F)cc1,0.058
14,CCOC(=O)CSc1nnc2cc(C)c3ccccc3n12,-11.8
15,CN(Cc1ccccc1)S(=O)(=O)c1cccs1,-36.7
16,CNC(=O)c1cc2c(=O)n3cc(C)ccc3nc2n(C(C)C)c1=N,-77.1
17,N#Cc1c(Nc2ccccc2)c(C=O)c[nH]c1=O,8.77
18,CCOc1cc(/C=C2/C(=N)N3C(=NC2=O)SN=C3S(C)(=O)=O)ccc1OC(=O)c1ccco1,16.3
19,CN(CC(=O)NCCN1CCOCC1)S(=O)(=O)c1ccc(F)cc1,2.88
20,CCCCCn1c(=S)[nH]c2cc(C(=O)N3CCN(C(=O)OCC)CC3)ccc2c1=O,6.31
21,Cc1c(NC(=O)c2cc3c(s2)-c2ccccc2OC3)cccc1[N+](=O)[O-],6.38
22,CCCCn1c(N)c(N(CCOC)C(=O)C2CCN(C(=O)c3ccc(F)cc3)CC2)c(=O)[nH]c1=O,18.1

row,Structure (SMILES),"hERG current change (%, negative = inhibition) at 10uM [%]"
1,COc1ccc(NC(=O)c2cc3ccccc3o/c2=N\NS(=O)(=O)c2ccc(C)cc2)cc1,-13.6
2,Cc1ccc(N(CC(=O)NC2CCCC2)C(=O)CCC(=O)Nc2ccccn2)cc1,-18.2
3,O=C(C1CCN(S(=O)(=O)c2cccc3cccnc23)CC1)N1CCN(c2ccc(Cl)cc2)CC1,-42.9
4,Cc1cn(CC(=O)c2ccccc2)c2ccccc12,4.66
5,O=C(c1ccccc1)c1cnc(-c2ccccc2)s1,35.8
6,CSc1cccc(NC(=O)Cn2cnc(S(=O)(=O)N3CCCC3)c2)c1,21.5
7,Cl.O=C(CNCc1ccco1)Nc1ccccc1-n1cccc1,7.04
8,COCCNC(=O)CN1C(=O)NC2(CCOc3ccccc32)C1=O (centres unmarked),22.6
9,Cc1ccccc1OCC(=O)Nc1nnc(S(=O)(=O)N2CCCC2)s1,53.4
10,Cn1ccsc1=NC(=O)c1ccccc1F,14.6
11,COc1cc(OC)cc(C(=O)N[C@H](C(=O)OCC(=O)Nc2cccnc2Cl)C(C)C)c1,-2
12,CC1Cc2ccccc2N1S(=O)(=O)c1cccc(C(=O)N2Cc3ccccc3CC2C(N)=O)c1 (centres unmarked),-13.3
13,CC1CCCCN1C(=O)c1cc(-c2ccc3c(c2)OCO3)on1 (centres unmarked),-6.82
14,COc1ccccc1OCc1cc(C(=O)NCc2ccc(N3CCCC3=O)cc2)no1,13.4
15,COc1ccccc1C(=O)Nc1cccc(C(=O)N2CCOCC2)c1,19.8
16,Cc1ccc(CN2CCN(Cc3cn[nH]c3-c3ccccc3)CC2CCO)o1 (centres unmarked),-12.7
17,O=C(c1ccc2c(c1)OCCO2)N1CCCCC1,12.8
18,O=C(Nc1cc(Oc2ccccc2)cc([N+](=O)[O-])c1)C12CC3CC(C1)CC(n1cnc(Cl)n1)(C3)C2,13.9
19,COc1ccc(CCN2CC(C(=O)NCCc3ccc(C(F)(F)F)cc3)CCC2=O)cc1 (centres unmarked),-46.8
20,NCCCC[C@H]1CN=C(N)N1CCc1cccc2ccccc12,1.08
21,Cc1nc(-c2ccccc2OC(F)(F)F)[nH]c(=O)c1Cl,7.36
22,Fc1ccc(-c2csc3ncnc(Nc4ccc(N5CCOCC5)cc4)c23)cc1,17.6

row,Structure (SMILES),"hERG current change (%, negative = inhibition) at 10uM [%]"
1,NC(=O)c1ccc(-c2nnc(Nc3ccc(S(N)(=O)=O)cc3)c3ccccc23)cc1,25.7
2,Cc1ccccc1NC(=S)N(Cc1ccco1)C(C)c1ccccn1 (centres unmarked),9.25
3,CC(=O)Nc1ccc2nc(-c3ccccc3)cn2c1,15.1
4,O=C(NCc1ccc(F)cc1)C(c1ccccc1)N(C(=O)c1csnn1)C1CC1 (centres unmarked),11
5,C=CCn1c(O)c(C(CC)=NCc2cc(OC)cc(OC)c2)c(=O)[nH]c1=O,-59
6,COc1cc(C(=O)NCCOc2cc(C)ccc2C(C)C)cc(OC)c1OC,-12.6
7,CC1CCN(CCNC(=O)CN(C)S(=O)(=O)c2cccc3nsnc23)CC1,-14.4
8,Cc1[nH]c(=S)c(C#N)c(C)c1Cc1ccccc1,12.1
9,Cc1cc(=O)n(C(C)(C)C)c(=O)n1Cc1ccccc1,11
10,CCOC(=O)C1CCN(C(=O)COc2ccc(S(=O)(=O)N3CCOCC3)cc2)CC1,8.96
11,CCOC(=O)C1=C(C)N(c2ccc(OC)cc2)C(=O)/C1=C\c1ccc(O)c(OCC)c1,0.519
12,CC(C(=O)O)N1C(=O)c2cccc3cccc1c23 (centres unmarked),1.97
13,CC(=O)c1c(C)[nH]c(C(=O)Nc2ccccc2Cl)c1C,-7.38
14,O=C1CC(c2cccnc2)c2cc3c(cc2N1)OCCO3 (centres unmarked),17.2
15,Cc1ccc(C(C)C)cc1OCC(=O)NNC(=O)Nc1ccccc1,28.3
16,COc1ccc(C)c(NC(=O)NCCc2cnc[nH]2)c1,12
17,O=C(O)CCCCCN1C(=O)C(O)=C(C(=O)/C=C/c2ccccc2)C1c1cccc([N+](=O)[O-])c1 (centres unmarked),14.7
18,Cc1cc2c(nn1)CCC/C2=N\O,8.59
19,CN(C)S(=O)(=O)c1cc(NC(=O)COC(=O)Cc2cccc3ccccc23)ccc1Cl,-2.25
20,CCc1cccc(CC)c1NC(=O)COC(=O)CC1c2ccccc2CCN1S(=O)(=O)c1ccccc1 (centres unmarked),-0.322
21,COc1ccc(S(=O)(=O)N2CCN(C(=O)COc3ccccc3)CC2)cc1,13.5
22,CCOC(=O)CN1C(=O)C(C)(C)Oc2ccc(C(=O)Nc3ccccc3OC)cc21,-6.76

row,Structure (SMILES),"hERG current change (%, negative = inhibition) at 10uM [%]"
1,CCOC(=O)N1CCN(CCC(=O)Nc2cccc(C)c2)CC1.Cl,1.45
2,COC(=O)c1nn(-c2ccccc2)c2nnc(Cc3ccc(C)cc3)c(=O)n12,-7.66
3,CCn1c(C)cc(/C=C2/NC(=O)N(c3ccccc3)C2=O)c1C,18.3
4,O=C(NN=C1CCCCCCC1)c1ccc2ccccc2n1,-10.6
5,COCCCNC(=S)N1CCC(NC(=O)Nc2ccc(C)cc2)CC1,16.1
6,Cn1c(=O)c2sccc2n(Cc2ccc(Br)cc2)c1=O,8.86
7,COc1cccc(N/C=C/C(=O)c2ccc(OC)c(OC)c2)c1,-2.77
8,C/C=C(\C)C(=O)NCCN1C2=NC[C@H](Cc3ccccc3)N2C[C@@H]1Cc1ccc(OC)cc1,-73.3
9,CCc1cccc(C)c1NC(=O)CN(C)C1=NS(=O)(=O)c2ccccc21,-2.57
10,COc1ccc(NC(=O)NCc2ccccn2)cc1OC,2.36
11,CC(C)N=C1CC(C)(C)CC(=O)/C1=C(/O)CCCN1C(=O)c2ccccc2C1=O,-23.8
12,CCOc1cccc(/C=C/c2cc(C(=O)O)c3ccccc3n2)c1OC,28.8
13,O=C(CCCCn1c(=S)[nH]c2ccsc2c1=O)NCc1ccc2c(c1)OCO2,24.7
14,CC(=O)Nc1nc(SCc2ccc(Cl)cc2Cl)n[nH]1,16.4
15,O=C(Nc1ccc(CN2CCOCC2)cc1)c1ccc(Cl)cc1Cl,-19
16,Cc1ccc(C(=O)C(OC(=O)c2c(C)cc(=O)oc2C)c2ccccc2)cc1 (centres unmarked),30.4
17,CC1=C(C#N)C(NC(=O)c2cccc(Cl)c2)(C(F)(F)F)C(=O)N1 (centres unmarked),-3.79
18,CCC(C)(C)n1nnnc1C(c1cccnc1)N1CCCc2ccccc21 (centres unmarked),-19.6
19,COC(=O)c1cn(C(=O)c2ccc(Br)o2)c2ccccc12,4.27
20,COc1ccc(NC(=O)c2sc3nc(N4CCCC4)c4c(c3c2N)CC(C)(C)OC4)c(OC)c1,19.2
